Experimental data from PubChem BioAssay AID1159614 (National Center for Advancing Translational Sciences (NCATS), 2016).
In all, about 45,000 compounds went through this assay and about 65 (0.1%) were called active. The call rests on the fitted dose curve; in most records, active means well fitted activation curve with a large enough effect; inconclusive means small, poorly fitted or top-dose-only effect; inactive means no such curve, though single readings can be large or run the other way. The list shows a part of the results.

molecular target: Galactocerebrosidase (Homo sapiens) (UniProt P54803); assay: A Novel Cell-Based Assay to Identify Small Molecules for B -Galactocerebrosidase; settings: 145M-Twi-hGALC-G270D cells (Twitcher mouse brain line with human GALC G270D), HMU-beta-Gal fluorescence, 48 h; series mostly up to 57.5 µM; activation: at the top concentration; further: 0% is about no effect; nearly all actives have a fitted effect of over 65% in size
UniProt P54803, sequence (P54803 whole entry, looked up): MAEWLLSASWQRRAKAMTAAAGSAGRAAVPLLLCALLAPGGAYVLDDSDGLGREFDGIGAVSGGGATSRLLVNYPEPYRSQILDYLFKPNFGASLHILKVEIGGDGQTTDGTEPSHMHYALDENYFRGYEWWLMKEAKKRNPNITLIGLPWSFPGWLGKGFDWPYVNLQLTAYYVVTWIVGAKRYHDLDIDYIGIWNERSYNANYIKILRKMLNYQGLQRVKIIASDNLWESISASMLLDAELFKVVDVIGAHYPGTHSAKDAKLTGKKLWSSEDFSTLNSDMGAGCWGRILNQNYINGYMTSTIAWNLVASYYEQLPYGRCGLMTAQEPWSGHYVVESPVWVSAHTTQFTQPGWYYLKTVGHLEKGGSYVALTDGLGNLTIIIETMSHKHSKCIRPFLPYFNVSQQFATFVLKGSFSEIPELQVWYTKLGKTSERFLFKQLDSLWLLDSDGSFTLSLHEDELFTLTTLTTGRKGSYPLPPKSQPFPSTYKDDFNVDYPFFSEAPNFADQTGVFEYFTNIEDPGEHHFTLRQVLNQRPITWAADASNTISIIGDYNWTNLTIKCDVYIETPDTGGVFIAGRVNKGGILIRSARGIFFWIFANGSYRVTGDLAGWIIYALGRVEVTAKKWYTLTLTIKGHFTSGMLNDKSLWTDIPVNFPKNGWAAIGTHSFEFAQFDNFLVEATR
Outline: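 Fluorogenic HMU-b-Gal hydrolysis (0.1 mM final, pH 5.2 citrate-phosphate with 1 mg/mL sodium taurocholate; carbonate stop buffer) measures mutant GALC activity after compound treatment of live 145M-Twi Twitcher brain cells stably carrying human GALC-G270D, with wild-type GALC line alongside; activation sought.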

activation, inactive:
CCn1cc(/C=C(\NC(=O)c2ccc(C)cc2)C(=O)NCCCn2ccnc2)c2ccccc21 -10.2%, CCOC(=O)c1cc2c(=O)n3ccccc3nc2n(CC2CCCO2)c1=NC(=O)c1ccccc1C (stereo unspecified) -17%, Cc1ccc2c(=O)cc(C(=O)NCc3ccccc3)oc2c1 -6.88%, COc1ccc(CNC(=O)C2CCCN(S(=O)(=O)c3ccc4c(ccn4C)c3)C2)c(OC)c1 (stereo unspecified) -4.57%, CCOc1ccc2nc(N3CCN(C(=O)c4ccco4)CC3)sc2c1 -12.8%, COc1cccc(C(=O)N2CCCCC2CCN2CCCCC2)c1 (stereo unspecified) -9.6%, O=C(CSc1nc2c([nH]c3ccccc32)c(=O)n1-c1ccc(F)cc1)N1CCc2ccccc21 17.6%, CCc1ccc(-n2nc(CO)c(C(=O)NCCc3ccccc3)n2)cc1 -5.79%, Cc1ccc(C)c(N2CCN(C(=O)Cc3c(C(=O)O)c(C)cn3C)CC2)c1 -7%, Cc1cc(C)cc(-n2c(SCC(=O)N3CCC(C)CC3)nc3c([nH]c4ccccc43)c2=O)c1 1.21%, COc1ccc(OC)c(NC(=O)c2cccc3c2C(=O)N(C2CCCCC2)C3)c1 -6.08%, Cc1cccc(Cn2c(CNS(=O)(=O)c3ccc(C(C)C)cc3)nc3cccnc32)c1 -8.66%, Cc1oc(-c2ccccc2F)nc1CS(=O)CC(=O)NC(C)C (stereo unspecified) -16.5%, COc1cc(NC(=O)CN2CCN(S(=O)(=O)c3ccc(Br)cc3)CC2)cc(OC)c1 -2.55%, Cc1ccc(Nc2cc(C(=O)NCCc3ccccc3)c3ccccc3n2)c(C)c1 -14.3%, COc1ccc(NC(=O)CSc2nc(-c3cc(OC)c(OC)c(OC)c3)[nH]c2-c2ccc(F)cc2)cc1 0.473%, O=C(CSc1nc(-c2ccccc2)cn1-c1ccccc1F)Nc1ccc(F)cc1 -14.6%, COc1ccc(CNS(=O)(=O)c2cc3c(cc2Cl)N(C(C)=O)CCO3)cc1 -6.92%, CC1CCN(C(c2ccccc2)c2sc3nc(-c4ccco4)nn3c2O)CC1 (stereo unspecified) -21.4%, COc1ccc(CNC(=O)C2CCN(c3nnc(-n4c(C)ccc4C)s3)CC2)c(OC)c1 -0.774%, Cc1ccccc1Cn1c(COc2ccc(Cl)cc2)nc2ccccc21 -12%, Cc1nc2ccc(S(=O)(=O)N(C)CC(=O)Nc3ccc(C(C)C)cc3)cc2s1 -15.8%, O=C(Nc1cccc(F)c1)C1CCCN(S(=O)(=O)c2cccc3cccnc23)C1 (stereo unspecified) -9.98%, O=C(Cn1nc(-c2ccc(Cl)cc2)c2ccccc2c1=O)Nc1cccc(Br)c1 1.71%, CCCOC(=O)c1cccc(NC(=O)c2c(-c3ccccc3Cl)noc2C)c1 -0.584%, CCCCC(=O)Nc1c(C(=O)N2CCN(c3ccccc3F)CC2)oc2ccccc12 -20.6%, COc1ccc(NC(=O)CN2CCN(CC(=O)Nc3ccccc3F)CC2)c(OC)c1 -14.1%, Cc1ccc(-n2ncc(C(=O)NCCN3CCc4ccccc4C3)c2C2CCN(C(=O)OC(C)(C)C)CC2)cc1C -35.8%, O=c1c2cc3c(cc2nc2sc(Nc4ccccc4)nn12)OCO3 -5.62%, CC1CCN(S(=O)(=O)c2ccc3c(c2)c(=O)c(C(=O)N2CCN(c4cccc(Cl)c4)CC2)cn3C)CC1 -11.6%, CCOC(=O)c1c(C)oc2nc(C)nc(NCCc3ccc(OCC)c(OCC)c3)c12 -12%, COc1ccc(N2CCN(c3ncnc4c3cnn4-c3ccc(F)cc3)CC2)cc1 -9.1%, COC(=O)c1ccc(NC(=O)CSc2cn(CC(=O)N3CCCCC3)c3ccccc23)cc1 -11.9%, COc1ccc(-c2nc(SCC(=O)NC(C)CCc3ccccc3)n[nH]2)cc1 (stereo unspecified) 2.36%, COc1ccc(S(=O)(=O)c2c(Nc3cccc(C)c3C)sc(C(=O)c3ccccc3)c2N)cc1 -25.6%, Cc1cccc(C)c1NC(=O)CN1CCN(CCCC(c2ccc(F)cc2)c2ccc(F)cc2)CC1 -15.9%, CCN(c1ccccc1)S(=O)(=O)c1nnc(NC(=O)c2ccccc2OC)s1 -9.18%, CCOCCc1nn2c(=O)cc(COC(=O)c3ccc(NC(=O)C4CCCCC4)cc3)nc2s1 -1.15%, COc1cc(C)c(Cc2cnc(N)nc2N)cc1OC -16.8%, CCCN(C(=O)c1cn(C)c(=O)c2cc(OC)c(OC)cc12)c1ccc(CC)cc1 -7.19%, CCc1ccccc1NC(=O)CCCSc1nc(-c2ccco2)cc(C(F)(F)F)n1 -11.2%, COc1ccc(NC(=O)C2=CC(c3ccco3)=NS(=O)(=O)N2C)cc1OC -1.12%, O=C1CC(c2c(Cl)cccc2Cl)c2c(ccc3ccccc23)N1 (stereo unspecified) -36.7%, CC1=C(C(=O)Nc2ccccc2Cl)C(c2cccc(O)c2)n2ncnc2N1 (stereo unspecified) -11%, Cc1cc(NC(=O)c2ccc3c(c2)N(Cc2cccc(Cl)c2)C(=O)c2ccccc2S3(=O)=O)ccc1Br -4%, O=C(CS(=O)(=O)c1cccc2nsnc12)N1CCN(c2ccccc2F)CC1 -7.71%, O=C(Nc1ccc(Cl)cc1)C1CCC(CNS(=O)(=O)c2ccc(Br)s2)CC1 (stereo unspecified) -19.3%, Cc1nn(-c2ccccc2)c(OC(=O)c2ccccc2Br)c1S(=O)(=O)c1ccccc1 -7.29%, CCCCN(C)CCCNC(=O)C1CCN(S(=O)(=O)CCC)CC1 -4.19%, COc1ccc(-c2cc(C(F)(F)F)nc(SCCC(=O)Nc3ccc(NC(C)=O)cc3)n2)cc1 23.6%, O=C(Nc1ccccc1C(F)(F)F)c1ncoc1-c1ccco1 -14.8%, COCCNc1nc2c(c(=O)n(C)c(=O)n2C)n1Cc1c(F)cccc1Cl 0.932%, C[C@H]1C[C@H](O)c2ccsc2S1(=O)=O -10%, CCOc1ccc(CN2C(=O)c3ccccc3Sc3ccc(C(=O)NCc4ccco4)cc32)cc1 -12.8%, COc1ccc(Cl)cc1NC(=O)CSc1cn(CC(=O)N2CCCCC2)c2ccccc12 -15.8%, Cc1oc(-c2cccc(Cl)c2)nc1CN1CCC(C(=O)NC(C)c2ccccc2)CC1 (stereo unspecified) -6.96%, CCN(CC)c1ccc(CNCCCSc2nnnn2C)cc1 -11.2%, COc1ccc(CNC(=O)c2cc(Nc3ccccc3C)nc3ccccc23)cc1 -14.7%, Cc1nn2c(=O)cc(COC(=O)c3ccc(NC(=O)COc4ccc(C)c(C)c4)cc3)nc2s1 -8.31%, O=c1n(Cc2ccccc2Cl)c2ccccc2c2nc(-c3ccccc3)nn12 -7.04%

Potency, inactive:
CC/C=C(\C(=O)N[C@@H]1C(=O)N2C(C(=O)OCOC(=O)C(C)(C)C)=C(COC(N)=O)CS[C@H]12)c1csc(N)n1
